Reference: the supplement of paper PMC8728848
This is one part of the list.

Tests used:
Experiment in all cases: glycan array binding signal (z-score within array); higher = stronger binding
Settings in all cases: glycan notation: IUPAC condensed, linker removed
[1] = molecular target: Neu5Ac(a2-3)Gal(b1-4)GlcNAc(b1-3)GalNAc
Procedure, shortened: (§1)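 From the Consortium for Functional Glycomics database, 3228 arrays were curated, keeping only those whose protein sequence was available. Binding is given as a within-array Z-score averaged across arrays sharing a protein sequence and across linkers. Negative Z-scores can be read as non-binding.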

[2] = molecular target: Neu5Ac(a2-3)Gal(b1-4)GlcNAc(b1-6)[Gal(b1-3)]GalNAc
Procedure, shortened: as §1

[3] = molecular target: Neu5Ac(a2-3)Gal(b1-4)GlcNAc(b1-6)[Neu5Ac(a2-3)Gal(b1-3)]GalNAc
Procedure, shortened: as §1

[4] = molecular target: Neu5Ac(a2-3)Gal(b1-4)GlcNAc6S
Procedure, shortened: as §1

[5] = molecular target: Neu5Ac(a2-3)Gal(b1-4)[Fuc(a1-3)]GlcNAc
Procedure, shortened: as §1

[6] = molecular target: Neu5Ac(a2-3)Gal(b1-4)[Fuc(a1-3)]GlcNAc(b1-3)Gal
Procedure, shortened: as §1

[7] = molecular target: Neu5Ac(a2-3)Gal(b1-4)[Fuc(a1-3)]GlcNAc(b1-3)Gal(b1-4)GlcNAc
Procedure, shortened: as §1

[8] = molecular target: Neu5Ac(a2-3)Gal(b1-4)[Fuc(a1-3)]GlcNAc(b1-3)Gal(b1-4)[Fuc(a1-3)]GlcNAc(b1-3)Gal(b1-4)[Fuc(a1-3)]GlcNAc
Procedure, shortened: as §1

[9] = molecular target: Neu5Ac(a2-3)Gal(b1-4)[Fuc(a1-3)]GlcNAc(b1-3)GalNAc
Procedure, shortened: as §1

[10] = molecular target: Neu5Ac(a2-3)Gal(b1-4)[Fuc(a1-3)]GlcNAc(b1-6)[Gal(b1-3)]GalNAc
Procedure, shortened: as §1

[11] = molecular target: Neu5Ac(a2-3)Gal(b1-4)[Fuc(a1-3)]GlcNAc6S
Procedure, shortened: as §1

[12] = molecular target: Neu5Ac(a2-3)Gal6S(b1-4)GlcNAc
Procedure, shortened: as §1

[13] = molecular target: Neu5Ac(a2-3)Gal6S(b1-4)[Fuc(a1-3)]GlcNAc
Procedure, shortened: as §1

Neu5Ac(a2-3)GalNAc = molecular target: Neu5Ac(a2-3)GalNAc
Procedure, shortened: as §1

[14] = molecular target: Neu5Ac(a2-3)GalNAc(b1-4)GlcNAc
Procedure, shortened: as §1

[15] = molecular target: Neu5Ac(a2-3)[GalNAc(b1-4)]Gal(b1-4)Glc
Procedure, shortened: as §1

[16] = molecular target: Neu5Ac(a2-3)[GalNAc(b1-4)]Gal(b1-4)GlcNAc
Procedure, shortened: as §1

[17] = molecular target: Neu5Ac(a2-3)[GalNAc(b1-4)]Gal(b1-4)GlcNAc(b1-3)GalNAc
Procedure, shortened: as §1

[18] = molecular target: Neu5Ac(a2-3)[Neu5Ac(a2-6)]GalNAc
Procedure, shortened: as §1

Neu5Ac(a2-6)Gal = molecular target: Neu5Ac(a2-6)Gal
Procedure, shortened: as §1

[19] = molecular target: Neu5Ac(a2-6)Gal(b1-3)GlcNAc(b1-3)[Gal(b1-4)GlcNAc(b1-6)]Gal(b1-4)Glc
Procedure, shortened: as §1

Neu5Ac(a2-6)Gal(b1-4)Glc = molecular target: Neu5Ac(a2-6)Gal(b1-4)Glc
Procedure, shortened: as §1

[20] = molecular target: Neu5Ac(a2-6)Gal(b1-4)GlcNAc
Procedure, shortened: as §1

[21] = molecular target: Neu5Ac(a2-6)Gal(b1-4)GlcNAc(b1-2)Man(a1-3)Man(b1-4)GlcNAc(b1-4)GlcNAc
Procedure, shortened: as §1

[22] = molecular target: Neu5Ac(a2-6)Gal(b1-4)GlcNAc(b1-2)Man(a1-3)[Gal(b1-4)GlcNAc(b1-2)Man(a1-6)]Man(b1-4)GlcNAc(b1-4)GlcNAc
Procedure, shortened: as §1

[23] = molecular target: Neu5Ac(a2-6)Gal(b1-4)GlcNAc(b1-2)Man(a1-3)[GlcNAc(b1-2)Man(a1-6)]Man(b1-4)GlcNAc(b1-4)GlcNAc
Procedure, shortened: as §1

[24] = molecular target: Neu5Ac(a2-6)Gal(b1-4)GlcNAc(b1-2)Man(a1-3)[GlcNAc(b1-2)Man(b1-4)GlcNAc(b1-2)Man(a1-6)]Man(b1-4)GlcNAc(b1-4)GlcNAc
Procedure, shortened: as §1

[25] = molecular target: Neu5Ac(a2-6)Gal(b1-4)GlcNAc(b1-2)Man(a1-3)[Man(a1-6)]Man(b1-4)GlcNAc(b1-4)GlcNAc
Procedure, shortened: as §1

[26] = molecular target: Neu5Ac(a2-6)Gal(b1-4)GlcNAc(b1-2)Man(a1-3)[Neu5Ac(a2-6)Gal(b1-4)GlcNAc(b1-2)Man(a1-6)]Man(b1-4)GlcNAc(b1-4)GlcNAc
Procedure, shortened: as §1

[27] = molecular target: Neu5Ac(a2-6)Gal(b1-4)GlcNAc(b1-2)Man(a1-6)Man(b1-4)GlcNAc(b1-4)GlcNAc
Procedure, shortened: as §1

[28] = molecular target: Neu5Ac(a2-6)Gal(b1-4)GlcNAc(b1-2)Man(a1-6)[Gal(b1-4)GlcNAc(b1-2)Man(a1-3)]Man(b1-4)GlcNAc(b1-4)GlcNAc
Procedure, shortened: as §1

[29] = molecular target: Neu5Ac(a2-6)Gal(b1-4)GlcNAc(b1-2)Man(a1-6)[GlcNAc(b1-2)Man(a1-3)]Man(b1-4)GlcNAc(b1-4)GlcNAc
Procedure, shortened: as §1

[30] = molecular target: Neu5Ac(a2-6)Gal(b1-4)GlcNAc(b1-2)Man(a1-6)[Man(a1-3)]Man(b1-4)GlcNAc(b1-4)GlcNAc
Procedure, shortened: as §1

[31] = molecular target: Neu5Ac(a2-6)Gal(b1-4)GlcNAc(b1-3)Gal(b1-3)GlcNAc
Procedure, shortened: as §1

[32] = molecular target: Neu5Ac(a2-6)Gal(b1-4)GlcNAc(b1-3)Gal(b1-4)GlcNAc
Procedure, shortened: as §1

[33] = molecular target: Neu5Ac(a2-6)Gal(b1-4)GlcNAc(b1-3)Gal(b1-4)GlcNAc(b1-3)Gal(b1-4)GlcNAc
Procedure, shortened: as §1

[34] = molecular target: Neu5Ac(a2-6)Gal(b1-4)GlcNAc(b1-3)Gal(b1-4)[Fuc(a1-3)]GlcNAc(b1-3)Gal(b1-4)[Fuc(a1-3)]GlcNAc
Procedure, shortened: as §1

[35] = molecular target: Neu5Ac(a2-6)Gal(b1-4)GlcNAc(b1-3)GalNAc
Procedure, shortened: as §1

[36] = molecular target: Neu5Ac(a2-6)Gal(b1-4)GlcNAc6S
Procedure, shortened: as §1

Neu5Ac(a2-6)GalNAc = molecular target: Neu5Ac(a2-6)GalNAc
Procedure, shortened: as §1

[37] = molecular target: Neu5Ac(a2-6)GalNAc(b1-4)GlcNAc
Procedure, shortened: as §1

[38] = molecular target: Neu5Ac(a2-6)GlcNAc(b1-4)GlcNAc
Procedure, shortened: as §1

[39] = molecular target: Neu5Ac(a2-6)GlcNAc(b1-4)GlcNAc(b1-4)GlcNAc
Procedure, shortened: as §1

Neu5Ac(a2-8)Neu5Ac = molecular target: Neu5Ac(a2-8)Neu5Ac
Procedure, shortened: as §1

[40] = molecular target: Neu5Ac(a2-8)Neu5Ac(a2-3)Gal(b1-3)GalNAc(b1-4)[Neu5Ac(a2-8)Neu5Ac(a2-3)]Gal(b1-4)Glc
Procedure, shortened: as §1

[41] = molecular target: Neu5Ac(a2-8)Neu5Ac(a2-3)Gal(b1-4)Glc
Procedure, shortened: as §1

[42] = molecular target: Neu5Ac(a2-8)Neu5Ac(a2-3)[Gal(b1-3)GalNAc(b1-4)]Gal(b1-4)Glc
Procedure, shortened: as §1

[43] = molecular target: Neu5Ac(a2-8)Neu5Ac(a2-3)[GalNAc(b1-4)]Gal(b1-4)Glc
Procedure, shortened: as §1

[44] = molecular target: Neu5Ac(a2-8)Neu5Ac(a2-8)Neu5Ac
Procedure, shortened: as §1

[45] = molecular target: Neu5Ac(a2-8)Neu5Ac(a2-8)Neu5Ac(a2-3)Gal(b1-4)Glc
Procedure, shortened: as §1

[46] = molecular target: Neu5Ac(a2-8)Neu5Ac(a2-8)Neu5Ac(a2-3)[GalNAc(b1-4)]Gal(b1-4)Glc
Procedure, shortened: as §1

[47] = molecular target: Neu5Ac(a2-8)Neu5Ac(a2-8)Neu5Ac(a2-8)Neu5Ac(a2-3)[GalNAc(b1-4)]Gal(b1-4)Glc
Procedure, shortened: as §1

[48] = molecular target: Neu5Ac(b2-6)Gal(b1-4)GlcNAc
Procedure, shortened: as §1

Neu5Ac(b2-6)GalNAc = molecular target: Neu5Ac(b2-6)GalNAc
Procedure, shortened: as §1

[49] = molecular target: Neu5Ac9Ac(a2-3)Gal(b1-3)GlcNAc
Procedure, shortened: as §1

[50] = molecular target: Neu5Ac9Ac(a2-3)Gal(b1-4)GlcNAc
Procedure, shortened: as §1

[51] = molecular target: Neu5Ac9Ac(a2-6)Gal(b1-4)GlcNAc
Procedure, shortened: as §1

[52] = molecular target: Neu5Gc(a2-3)Gal(b1-3)GlcNAc
Procedure, shortened: as §1

[53] = molecular target: Neu5Gc(a2-3)Gal(b1-3)[Fuc(a1-4)]GlcNAc
Procedure, shortened: as §1

Neu5Gc(a2-3)Gal(b1-4)Glc = molecular target: Neu5Gc(a2-3)Gal(b1-4)Glc
Procedure, shortened: as §1

[54] = molecular target: Neu5Gc(a2-3)Gal(b1-4)GlcNAc
Procedure, shortened: as §1

[55] = molecular target: Neu5Gc(a2-3)Gal(b1-4)[Fuc(a1-3)]GlcNAc
Procedure, shortened: as §1

[56] = molecular target: Neu5Gc(a2-6)Gal(b1-4)GlcNAc
Procedure, shortened: as §1

Neu5Gc(a2-6)GalNAc = molecular target: Neu5Gc(a2-6)GalNAc
Procedure, shortened: as §1

[57] = molecular target: Neu5Gc(b2-6)Gal(b1-4)GlcNAc
Procedure, shortened: as §1

B1: 3FTT (Staphylococcus aureus), Q5HCZ5 (protein)
chain: MTEKEKMLAEKWYDANFDQYLINERARAKDICFELNHTRPSATNKRKELIDQLFQTTTDNVSISIPFDTDYGWNVKLGKNVYVNTNCYFMDGGQITIGDNVFIGPNCGFYTATHPLNFHHRNEGFEKAGPIHIGSNTWFGGHVAVLPGVTIGEGSVIGAGSVVTKDIPPHSLAVGNPCKVVRKIDNDLPSETLNDETIK
glycan array binding signal (z-score) [1]: -0.196
glycan array binding signal (z-score) [2]: -0.225
glycan array binding signal (z-score) [3]: -0.217
glycan array binding signal (z-score) [4]: 0.033
glycan array binding signal (z-score) [5]: -0.17
glycan array binding signal (z-score) [6]: -0.115
glycan array binding signal (z-score) [7]: 0.162
glycan array binding signal (z-score) [8]: -0.195
glycan array binding signal (z-score) [9]: 0.124
glycan array binding signal (z-score) [10]: 0.485
glycan array binding signal (z-score) [11]: 0.121
glycan array binding signal (z-score) [12]: 0.037
glycan array binding signal (z-score) [13]: 0.015
glycan array binding signal (z-score) (Neu5Ac(a2-3)GalNAc): -0.026
glycan array binding signal (z-score) [14]: 0.165
glycan array binding signal (z-score) [15]: -0.16
glycan array binding signal (z-score) [16]: -0.255
glycan array binding signal (z-score) [17]: 0.287
glycan array binding signal (z-score) [18]: 0.223
glycan array binding signal (z-score) (Neu5Ac(a2-6)Gal): -0.155
glycan array binding signal (z-score) [19]: -0.068
glycan array binding signal (z-score) (Neu5Ac(a2-6)Gal(b1-4)Glc): -0.14
glycan array binding signal (z-score) [20]: -0.134
glycan array binding signal (z-score) [21]: 0.1
glycan array binding signal (z-score) [22]: -0.14
glycan array binding signal (z-score) [23]: -0.034
glycan array binding signal (z-score) [24]: 0.045
glycan array binding signal (z-score) [25]: -0.124
glycan array binding signal (z-score) [26]: -0.133
glycan array binding signal (z-score) [27]: 0.215
glycan array binding signal (z-score) [28]: -0.03
glycan array binding signal (z-score) [29]: -0.162
glycan array binding signal (z-score) [30]: -0.226
glycan array binding signal (z-score) [31]: -0.076
glycan array binding signal (z-score) [32]: 0.055
glycan array binding signal (z-score) [33]: 0.007
glycan array binding signal (z-score) [34]: -0.129
glycan array binding signal (z-score) [35]: -0.283
glycan array binding signal (z-score) [36]: -0.095
glycan array binding signal (z-score) (Neu5Ac(a2-6)GalNAc): -0.035
glycan array binding signal (z-score) [37]: -0.14
glycan array binding signal (z-score) [38]: 0.079
glycan array binding signal (z-score) [39]: -0.123
glycan array binding signal (z-score) (Neu5Ac(a2-8)Neu5Ac): 0.034
glycan array binding signal (z-score) [40]: 0.117
glycan array binding signal (z-score) [41]: -0.237
glycan array binding signal (z-score) [42]: 0.044
glycan array binding signal (z-score) [43]: -0.099
glycan array binding signal (z-score) [44]: -0.127
glycan array binding signal (z-score) [45]: 0.056
glycan array binding signal (z-score) [46]: -0.275
glycan array binding signal (z-score) [47]: 0.128
glycan array binding signal (z-score) [48]: -0.255
glycan array binding signal (z-score) (Neu5Ac(b2-6)GalNAc): 0.053
glycan array binding signal (z-score) [49]: -0.153
glycan array binding signal (z-score) [50]: 0.081
glycan array binding signal (z-score) [51]: -0.038
glycan array binding signal (z-score) [52]: -0.371
glycan array binding signal (z-score) [53]: -0.13
glycan array binding signal (z-score) (Neu5Gc(a2-3)Gal(b1-4)Glc): -0.002
glycan array binding signal (z-score) [54]: -0.145
glycan array binding signal (z-score) [55]: -0.082
glycan array binding signal (z-score) [56]: -0.283
glycan array binding signal (z-score) (Neu5Gc(a2-6)GalNAc): -0.027
glycan array binding signal (z-score) [57]: -0.181
